Laboratory results: PubChem BioAssay AID493208 (National Center for Advancing Translational Sciences (NCATS), 2011)
Among all 44,000 compounds or so, about 340 (0.77%) were called active. The inconclusive results got no clear call from the source; some entries with a clear call stand among them for comparison. The call rests on the fitted dose curve; in most records, active means well fitted inhibition curve with a large enough effect; inconclusive means small, poorly fitted or top-dose-only effect; inactive means flat fitted curve, though single readings scatter. No potency is given beside an inconclusive call; the fits are too rough.

assay: Acumen qHTS Assay for Inhibitors of the mTORC1 Signaling Pathway in MEF (Tsc2-/-, p53-/-) Cells: Sytravon; settings: phospho-rpS6 immunofluorescence/PI, 24 h; series mostly up to 38.3 µM; activity change, negative = inhibition: at the top concentration; further: nearly all actives have a fitted effect of over 50% in size;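 on activity change, negative = inhibition: plate controls were DMSO for no effect and rapamycin for full effect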
In short: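 Immunofluorescence of rpS6 phosphorylation in Tsc2-/-, p53-/- MEFs after 24 h compound exposure, normalized to propidium iodide signal. Activity is expressed as % positive cells, thresholded with 7.5 nM rapamycin.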
Potency means the concentration at half of the fitted maximal effect; tags describe the fitted curve by direction and shape.

| SMILES | activity change, negative = inhibition | Potency |
| --- | --- | --- |
| CC1CCN(c2ccc(-c3cccc(NS(=O)(=O)c4ccc(F)cc4F)c3)nn2)CC1 | inactive: -7.21% | – |
| COc1ccc(N(C)C(=O)Cn2cc(S(=O)(=O)N3CCN(c4ccccc4F)CC3)c3ccccc3c2=O)c(OC)c1 | – | inconclusive [falling, partial curve, poor fit] |
| CCSc1ncc(Cl)c(C(=O)Nc2cccc(Cl)c2)n1 | – | inconclusive [falling, partial curve, poor fit] |
| COc1ccccc1N1CCN(C(=O)C2CCCN(S(=O)(=O)c3ccc4c(c3)CCCN4C(C)=O)C2)CC1 (stereo not drawn) | inactive: -28.9% | – |
| Cc1ccc(-c2nn3c(C)nnc3c3ccccc23)cc1S(=O)(=O)NCC(C)O (stereo not drawn) | inactive: -9.85% | – |
| COc1cc(NC(=O)CSc2c3c(nc4ccccc24)CCC3)cc(OC)c1OC | – | inconclusive [falling, partial curve, poor fit] |
| COc1ccc(-c2[nH]nc3nc(-c4cc(Br)ccc4OC)cc(C(=O)O)c23)cc1 | – | inconclusive [falling, partial curve, poor fit] |
| COc1ccccc1CN1CCC(CNC(=O)c2cnn(-c3ccccc3Cl)c2C2CCN(C(=O)OC(C)(C)C)CC2)CC1 | – | inconclusive [falling, single point] |
| CCCN1Cc2cccc(C(=O)Nc3cc(Cl)ccc3C)c2C1=O | inactive: 3.93% | – |
| Cc1cccc(NC(=O)c2sc3ncnc(N(C)C4CCCCC4)c3c2C)c1C | inactive: -5.92% | – |
| CCN1CCN(Cc2c(O)ccc3oc(C)c(C(=O)Nc4cccc(C(F)(F)F)c4)c23)CC1 | – | inconclusive [falling, single point] |
| Cc1cccc(C)c1NC(=O)c1cc(S(=O)(=O)N2CCc3ccccc3C2)ccc1F | – | inconclusive [falling, partial curve, poor fit] |
| COc1ccc(NC(=O)C2CCCN(S(=O)(=O)c3ccc(F)cc3)C2)cc1 (stereo not drawn) | inactive: 0.356% | – |
| Cc1cc(C)c(S(=O)(=O)Nc2ccc3oc4c(c3c2)CCCC4)cc1C | – | inconclusive [falling, single point] |
| COCCCNC(=O)c1ccc(CSc2nc3cccnc3n2Cc2ccc(OC)cc2)cc1 | – | inconclusive [falling, partial curve, poor fit] |
| COc1cccc(NC(=O)c2c(-c3ccc(C)cc3)nnc3ccccc23)c1 | – | inconclusive [falling, partial curve, poor fit] |
| Cc1cccc(C)c1Nc1c(-c2ccccc2Cl)nc2cnccn12 | inactive: -18.3% | – |
| CCOc1ccc(OCC)c(NC(=O)c2nnn(Cc3cc(Br)ccc3OC)c2N)c1 | inactive: 4.31% | – |
